Data from the supplement of paper PMC8728848.
Some of the results follow.

Assays:
Assay in all cases: glycan array binding signal (z-score within array); higher = stronger binding
Conditions in all cases: glycan notation: IUPAC condensed, linker removed
[1] = target: Fuc(a1-3)[Gal(b1-4)]GlcNAc(b1-4)Gal(b1-4)[Fuc(a1-3)]GlcNAc
How it was run: (§1)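 Glycan array data came from 3228 arrays in the Consortium for Functional Glycomics database, and only arrays with an available protein sequence were kept. Glycan names were put into IUPAC-condensed notation, and columns mapping to the same glycan were averaged. The binding signal is a within-array Z-score, averaged across arrays of one protein sequence run at different concentrations or buffers and across linkers. A negative Z-score can be read as non-binding.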

[2] = target: Fuc(a1-3)[Gal(b1-4)]GlcNAc(b1-4)Gal(b1-4)[Fuc(a1-3)]GlcNAc(b1-4)Gal(b1-4)[Fuc(a1-3)]GlcNAc
How it was run: as §1

[3] = target: Fuc(a1-3)[Gal(b1-4)]GlcNAc(b1-6)GalNAc
How it was run: as §1

[4] = target: Fuc(a1-3)[Gal(b1-4)]GlcNAc(b1-6)[Gal(b1-3)GlcNAc(b1-3)]Gal(b1-4)Glc
How it was run: as §1

[5] = target: Fuc(a1-3)[Gal(b1-4)]GlcNAc6S
How it was run: as §1

[6] = target: Fuc(a1-3)[Gal3S(b1-4)]Glc
How it was run: as §1

[7] = target: Fuc(a1-3)[Gal3S(b1-4)]GlcNAc
How it was run: as §1

[8] = target: Fuc(a1-3)[Gal3S(b1-4)]GlcNAc6S
How it was run: as §1

[9] = target: Fuc(a1-3)[GalNAc(b1-4)]GlcNAc
How it was run: as §1

[10] = target: Fuc(a1-3)[GalNAc(b1-4)]GlcNAc6S
How it was run: as §1

[11] = target: Fuc(a1-4)GlcNAc
How it was run: as §1

[12] = target: Fuc(b1-3)GlcNAc
How it was run: as §1

[13] = target: Gal(a1-2)Gal
How it was run: as §1

[14] = target: Gal(a1-3)Gal
How it was run: as §1

[15] = target: Gal(a1-3)Gal(b1-3)GlcNAc
How it was run: as §1

[16] = target: Gal(a1-3)Gal(b1-3)GlcNAc(b1-2)Man
How it was run: as §1

[17] = target: Gal(a1-3)Gal(b1-3)GlcNAc(b1-2)Man(a1-3)[Gal(a1-3)Gal(b1-3)GlcNAc(b1-2)Man(a1-6)]Man(b1-4)GlcNAc(b1-4)GlcNAc
How it was run: as §1

[18] = target: Gal(a1-3)Gal(b1-3)GlcNAc(b1-3)GalNAc
How it was run: as §1

[19] = target: Gal(a1-3)Gal(b1-3)GlcNAc(b1-6)GalNAc
How it was run: as §1

[20] = target: Gal(a1-3)Gal(b1-3)[Fuc(a1-4)]GlcNAc(b1-2)Man(a1-3)[Gal(a1-3)Gal(b1-3)[Fuc(a1-4)]GlcNAc(b1-2)Man(a1-6)]Man(b1-4)GlcNAc(b1-4)GlcNAc
How it was run: as §1

[21] = target: Gal(a1-3)Gal(b1-4)Glc
How it was run: as §1

[22] = target: Gal(a1-3)Gal(b1-4)GlcNAc
How it was run: as §1

[23] = target: Gal(a1-3)Gal(b1-4)GlcNAc(b1-2)Man
How it was run: as §1

[24] = target: Gal(a1-3)Gal(b1-4)GlcNAc(b1-2)Man(a1-3)[Gal(a1-3)Gal(b1-4)GlcNAc(b1-2)Man(a1-6)]Man(b1-4)GlcNAc(b1-4)GlcNAc
How it was run: as §1

[25] = target: Gal(a1-3)Gal(b1-4)GlcNAc(b1-3)GalNAc
How it was run: as §1

[26] = target: Gal(a1-3)Gal(b1-4)GlcNAc(b1-6)GalNAc
How it was run: as §1

[27] = target: Gal(a1-3)Gal(b1-4)[Fuc(a1-3)]GlcNAc
How it was run: as §1

[28] = target: Gal(a1-3)Gal(b1-4)[Fuc(a1-3)]GlcNAc(b1-2)Man(a1-3)[Gal(a1-3)Gal(b1-4)[Fuc(a1-3)]GlcNAc(b1-2)Man(a1-6)]Man(b1-4)GlcNAc(b1-4)GlcNAc
How it was run: as §1

[29] = target: Gal(a1-3)GalNAc
How it was run: as §1

[30] = target: Gal(a1-3)[Gal(a1-4)]Gal(b1-4)GlcNAc
How it was run: as §1

[31] = target: Gal(a1-4)Gal(b1-3)GlcNAc(b1-2)Man(a1-3)[Gal(a1-4)Gal(b1-3)GlcNAc(b1-2)Man(a1-6)]Man(b1-4)GlcNAc(b1-4)GlcNAc
How it was run: as §1

[32] = target: Gal(a1-4)Gal(b1-4)Glc
How it was run: as §1

[33] = target: Gal(a1-4)Gal(b1-4)GlcNAc
How it was run: as §1

[34] = target: Gal(a1-4)Gal(b1-4)GlcNAc(b1-2)Man(a1-3)[Gal(a1-4)Gal(b1-4)GlcNAc(b1-2)Man(a1-6)]Man(b1-4)GlcNAc(b1-4)GlcNAc
How it was run: as §1

[35] = target: Gal(a1-4)Gal(b1-4)GlcNAc(b1-3)Gal(b1-4)Glc
How it was run: as §1

[36] = target: Gal(a1-4)GlcNAc
How it was run: as §1

[37] = target: Gal(a1-6)Glc
How it was run: as §1

[38] = target: Gal(b1-2)Gal
How it was run: as §1

[39] = target: Gal(b1-3)Gal
How it was run: as §1

[40] = target: Gal(b1-3)Gal(b1-4)GlcNAc
How it was run: as §1

[41] = target: Gal(b1-3)Gal(b1-4)GlcNAc(b1-2)Man(a1-3)[Gal(b1-3)Gal(b1-4)GlcNAc(b1-2)Man(a1-6)]Man(b1-4)GlcNAc(b1-4)GlcNAc
How it was run: as §1

[42] = target: Gal(b1-3)GalNAc
How it was run: as §1

[43] = target: Gal(b1-3)GalNAc(a1-3)[Fuc(a1-2)]Gal(b1-4)Glc
How it was run: as §1

[44] = target: Gal(b1-3)GalNAc(a1-3)[Fuc(a1-2)]Gal(b1-4)GlcNAc
How it was run: as §1

[45] = target: Gal(b1-3)GalNAc(b1-3)Gal
How it was run: as §1

B1: AAL (Agrocybe aegerita), Q6WY08 (protein)
chain: MQGVNIYNISAGTSVDLAAPVTTGDIVTFFSSALNLNAGAGNPNNTTLNLFAENGAYLLHIAFRLQENVIIFNSRQPDGPWLVEQRVSDVANQFAGIDGKAMVTVFDHGDKYQVVINEKTVIQYTKQISGLTLSLSYNATEETSIFSTVVEAVTYTGLALEHHHHHH
glycan array binding signal (z-score) [1]: -0.142
glycan array binding signal (z-score) [2]: -0.16
glycan array binding signal (z-score) [3]: -0.134
glycan array binding signal (z-score) [4]: -0.138
glycan array binding signal (z-score) [5]: -0.133
glycan array binding signal (z-score) [6]: -0.148
glycan array binding signal (z-score) [7]: -0.158
glycan array binding signal (z-score) [8]: -0.138
glycan array binding signal (z-score) [9]: -0.111
glycan array binding signal (z-score) [10]: -0.156
glycan array binding signal (z-score) [11]: -0.157
glycan array binding signal (z-score) [12]: -0.123
glycan array binding signal (z-score) [13]: -0.142
glycan array binding signal (z-score) [14]: -0.139
glycan array binding signal (z-score) [15]: -0.091
glycan array binding signal (z-score) [16]: -0.12
glycan array binding signal (z-score) [17]: -0.119
glycan array binding signal (z-score) [18]: -0.075
glycan array binding signal (z-score) [19]: 0.046
glycan array binding signal (z-score) [20]: -0.122
glycan array binding signal (z-score) [21]: -0.036
glycan array binding signal (z-score) [22]: 0.682
glycan array binding signal (z-score) [23]: 0.637
glycan array binding signal (z-score) [24]: 7.5
glycan array binding signal (z-score) [25]: 0.152
glycan array binding signal (z-score) [26]: -0.136
glycan array binding signal (z-score) [27]: -0.142
glycan array binding signal (z-score) [28]: -0.14
glycan array binding signal (z-score) [29]: -0.15
glycan array binding signal (z-score) [30]: -0.049
glycan array binding signal (z-score) [31]: -0.136
glycan array binding signal (z-score) [32]: -0.147
glycan array binding signal (z-score) [33]: -0.136
glycan array binding signal (z-score) [34]: -0.136
glycan array binding signal (z-score) [35]: -0.155
glycan array binding signal (z-score) [36]: -0.142
glycan array binding signal (z-score) [37]: -0.145
glycan array binding signal (z-score) [38]: -0.141
glycan array binding signal (z-score) [39]: -0.137
glycan array binding signal (z-score) [40]: -0.135
glycan array binding signal (z-score) [41]: 6.91
glycan array binding signal (z-score) [42]: -0.148
glycan array binding signal (z-score) [43]: -0.161
glycan array binding signal (z-score) [44]: -0.131
glycan array binding signal (z-score) [45]: -0.14
